The campaign covered roughly 150,000 compounds. About 6,500 (4.3%) were called active. Inconclusive means that the source gave no clear call. Such entries were picked first, then a sample of the others. Calls come from the whole dose curve; as a rule, active = well fitted inhibition curve with a large enough effect (not every such curve was filed as active); inconclusive = small, poorly fitted or top-dose-only effect, or another doubt; inactive = no such curve, though single readings can be large or run the other way. Potencies of inconclusive entries are doubtful fits and often do not repeat. Starred links: 1 amine or outer side, 2 acyl side, 3 side chain; linkers in the order of their positions; H or OH if unused. Positions of bridges follow the written chain, without caps; N, C: chain ends. Non-standard residues stand in square brackets, D forms with d. Residues, ends and D or L forms follow the SMILES beside them. Chains are numbered I, II in the order given. Actinocin(9to1) = Cc1c2oc3c(C)ccc(C(=O)[*:1])c3nc-2c(C(=O)[*:2])c(N)c1=O; aThr = C[C@H](O)[C@H](N)C(=O)O; NMeV = CN[C@H](C(=O)O)C(C)C; Sar = CNCC(=O)O
Molecular target: 15-hydroxyprostaglandin dehydrogenase [NAD(+)] (Homo sapiens) (UniProt P15428)
Assay: qHTS Assay for Inhibitors of HPGD (15-Hydroxyprostaglandin Dehydrogenase)
Details: purified HPGD, NADH fluorescence kinetic, PGE2 substrate; activity change, negative = inhibition: hits give low values
Summary of the method: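 NADH formation kinetics: reaction with 30 uM PGE2 and 1 mM NAD+ (final), 20 nM enzyme, Tris-HCl pH 8 with Tween 20, after 15 min compound preincubation at room temperature. Fluorescence change, last versus first of five reads.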
% is set by controls: 0 for no effect and ±100 for the full control effect; potency is the fitted concentration of half-maximal effect; tags give direction and shape of the fitted curve.

Chain of UniProt P15428 (P15428 whole entry, looked up): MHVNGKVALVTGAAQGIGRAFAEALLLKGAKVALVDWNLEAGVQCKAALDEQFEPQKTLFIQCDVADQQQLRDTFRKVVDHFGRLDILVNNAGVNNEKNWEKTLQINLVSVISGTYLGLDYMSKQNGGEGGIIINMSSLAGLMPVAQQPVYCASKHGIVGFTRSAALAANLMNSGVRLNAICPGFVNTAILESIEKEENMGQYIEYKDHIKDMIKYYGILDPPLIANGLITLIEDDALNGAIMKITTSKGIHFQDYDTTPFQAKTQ

Potency, active:
CC(=O)Nc1cccc(Oc2ccc3c(c2)C(=O)N(CCC(=O)O)C3=O)c1 25.1 µM
COc1ccccc1-n1c(SCC(=O)NC2CCCC2)nc2cccnc21 14.1 µM
C=CC#CC[N+]1(CC#Cc2ccccc2)CCOCC1 25.1 µM
CN(c1ccc(C(=O)NC2CC2)cc1)S(=O)(=O)c1ccccc1 12.6 µM
COc1ccc(OC)c2c(=S)c3ccccc3[nH]c12 5.01 µM
CCn1c(SCc2nc3sc(C(=O)O)c(C)c3c(=O)[nH]2)nc2ccccc21 15.8 µM
COc1ccc(OC)c(NC(=O)C2CCC(CNc3c(N4CCC(C)CC4)c(=O)c3=O)CC2)c1 (configuration not stated) 25.1 µM
CN=C1N[C@H](c2ccccc2)N(c2ccccc2)S1 12.6 µM
Cc1cccc(Cn2cnc3c(nnn3Cc3ccc(F)cc3)c2=O)c1 14.1 µM
C=C(C(=O)C(C)(C)O)C(O)c1ccc([N+](=O)[O-])cc1 (configuration not stated) 25.1 µM

Potency, inconclusive:
Cc1cc(NC(=O)CSc2ccc(-c3nc4cc(C)c(C)cc4[nH]3)cn2)no1 14.1 µM [inhibitor, partial curve]
CCC(Sc1n[nH]c(=O)[nH]c1=O)C(=O)OCc1ccccc1 (configuration not stated) 22.4 µM [inhibitor, partial curve]
COc1cc(COc2ccc3c(C)c(Cc4ccccc4)c(=O)oc3c2C)cc(OC)c1OC 35.5 µM [inhibitor, partial curve]
CCC(Oc1ccccc1)C(=O)Nc1ccsc1C(=O)OC (configuration not stated) 22.4 µM [inhibitor, partial curve]
Nc1ccc[n+](Cc2ccccn2)c1 31.6 µM [inhibitor, partial curve]
Cc1ccc(C(=O)Nc2sc3c(c2C#N)CCCCC3)cc1C 35.5 µM [inhibitor, single point]
CCC(C)n1nccc1NC(=O)C(C)OC(=O)c1cc2ccccc2[nH]1 (configuration not stated) 8.91 µM [inhibitor, partial curve]
COCCCNC(=S)NCCCNc1nc2cc3c(cc2cc1C#N)OCO3 31.6 µM [inhibitor, partial curve]
C=CCOc1ccc(C2OC34CCCCC3C(C#N)(C#N)C2(C#N)C(=N)O4)cc1 (configuration not stated) 31.6 µM [inhibitor, partial curve]
O=C(CNc1ccccc1)c1ccc([N+](=O)[O-])cc1 15.8 µM [inhibitor, partial curve]
COc1cc(/C=C/C(=O)N2CCOCC2)ccc1OCc1ccccc1 39.8 µM [inhibitor, single point]
Cc1ccc(C(=O)N/N=C/C2=Cc3ccccc3OC2C)cc1 (configuration not stated) 25.1 µM [inhibitor, partial curve]
OC(C#Cc1ccccn1)c1cccs1 (configuration not stated) 22.4 µM [inhibitor, partial curve]
CC(=O)Nc1ccc2oc(-c3ccccc3Br)nc2c1 22.4 µM [inhibitor, partial curve]
CCc1ccc(NS(=O)(=O)c2ccc3[nH]cc(C(=O)NCC4CCCO4)c(=O)c3c2)cc1 (configuration not stated) 8.91 µM [inhibitor, partial curve]
Cc1cc(-c2n[nH]c(=S)n2Cc2ccccc2)cs1 20 µM [inhibitor, partial curve]
Cc1c(O)ccc2c3c(c(=O)oc12)CCC(C)C3 (configuration not stated) 25.1 µM [inhibitor, partial curve]
COc1ccc(N2CCN(C(=O)c3sc4nc(-c5ccc(F)cc5)cn4c3C)CC2)cc1 22.4 µM [inhibitor, partial curve]
COc1ccc2[nH]c(=O)c(CN(CCO)C(=O)c3cccs3)cc2c1 28.2 µM [inhibitor, partial curve]
COc1ccc2c(c1)[nH]c1c(N3CCN(Cc4ccc5c(c4)OCO5)CC3)ncnc12 31.6 µM [inhibitor, single point]
O=S(=O)(Nc1cccc(-c2nc3cccnc3s2)c1)c1ccc2c(c1)CCCC2 25.1 µM [inhibitor, partial curve]
CCCNc1ncccc1C(N)=O 28.2 µM [inhibitor, partial curve]
COC(=O)c1ccccc1NC(=O)/C=N/O 22.4 µM [inhibitor, partial curve, poor fit]
Cc1c2oc3c(C)ccc(C(=O)N[C@@H]4C(=O)N[C@@H](C(C)C)C(=O)N5CCC[C@@H]5C(=O)N(C)CC(=O)N(C)[C@@H](C(C)C)C(=O)O[C@H]4C)c3nc-2c(C(=O)N[C@@H]2C(=O)N[C@@H](C(C)C)C(=O)N3CCC[C@@H]3C(=O)N(C)CC(=O)N(C)[C@@H](C(C)C)C(=O)O[C@H]2C)c(N)c1=O (I: [aThr]V[dP][Sar][NMeV] / II: [aThr]V[dP][Sar][NMeV]; ester I:1-I:C, II:1-II:C; linker I:N-II:N via Actinocin(9to1)) 31.6 µM [inhibitor, partial curve, poor fit]
Cc1ccc(CN2CCSc3ccc(C(=O)N4CCN(c5ncccn5)CC4)cc32)cc1 31.6 µM [inhibitor, partial curve]
O=C(CSc1nnc(-c2ccccc2)n1C1CCCCC1)Nc1ccc(S(=O)(=O)Nc2ccccn2)cc1 31.6 µM [inhibitor, partial curve]
CCC(=O)Nc1cc2c(C)cc(=O)oc2cc1C 28.2 µM [inhibitor, partial curve]
O=C(Cc1c(O)c2ccccc2[nH]c1=O)NCc1ccccc1F 28.2 µM [inhibitor, partial curve]
COc1ccc2nc(Nc3nc4cc5c(cc4s3)OCO5)sc2c1 39.8 µM [inhibitor, single point]
Cc1cc(Oc2ccc(Br)cc2)nc(SCC(=O)c2ccccc2)n1 25.1 µM [inhibitor, single point]
CC(=O)Nc1ccc(OC(=O)c2c(-c3ccccc3Cl)noc2C)cc1 15.8 µM [inhibitor, partial curve]
O=C(Nc1nnc(CSCc2ccccc2F)s1)c1cccc([N+](=O)[O-])c1 22.4 µM [inhibitor, partial curve]
CCC(=O)NCCC(c1ccco1)c1ccccc1OC (configuration not stated) 31.6 µM [inhibitor, partial curve]
Cc1cc2nc(-c3ccc(SCC(=O)Nc4ccc5c(c4)OCCO5)nc3)[nH]c2cc1C 25.1 µM [inhibitor, partial curve]
Cc1nc2c(sc3nc4c(cc32)COC(C)(C)C4)c(=O)n1CC(=O)NCc1ccco1 17.8 µM [inhibitor, partial curve]
Cc1ccc2[nH]c3c(=O)n(CCN4CCOCC4)cnc3c2c1 28.2 µM [inhibitor, partial curve]
O=C(CC1Nc2ccccc2NC1=O)NCc1cccnc1 (configuration not stated) 20 µM [inhibitor, partial curve]
CCSc1nc2ccccc2n1Cc1cccc([N+](=O)[O-])c1 12.6 µM [inhibitor, partial curve]
Cc1nc2c3cnn(-c4ccc(C)c(C)c4)c3ncn2n1 20 µM [inhibitor, single point]

Activity change, negative = inhibition, inactive:
Cc1ccc(NC(=O)c2cccc(Cl)c2)nc1 -27.5%
COc1cc(OC)cc(C(=O)N[C@H](C(=O)OCC(=O)c2ccc3c(c2)NC(=O)CO3)C(C)C)c1 -19.5%
CCOc1c(C)cc2[nH]c(CCC(=O)O)nc2c1C -2.13%
Cc1ccc(Cl)cc1N1CCN(C(=O)c2cccc3c(=O)c(C)c(-c4ccccc4)oc23)CC1 0.844%
c1coc(-c2nnc(SCc3nc4ccccc4[nH]3)o2)c1 -5.21%
COC(=O)c1ccccc1NC(=O)CCNC(=O)Cn1cnc2ccccc2c1=O -12.9%
COc1cccc(C(=O)NC(=S)Nc2ccc(N3CCCC3)cc2)c1 -21.9%
O=C(Nn1c(=S)[nH]c2ccccc2c1=O)c1ccncc1 -10.4%
O=C(NCc1ccccn1)c1cccc(NS(=O)(=O)c2cccc(F)c2)c1 -15.7%
Cc1sc(N)c(C(=O)c2cccc(C(F)(F)F)c2)c1C -22.1%
Cc1cccc(N2CCN(C3=NC(=O)C(=C4CCCCC4)S3)CC2)c1 -5.55%
COC(=O)c1ccc(C(NC(=O)OCc2ccccc2)/C(I)=C/[C@@H](C)C(=O)NCc2ccc(OC)c(O)c2)cc1 (some centres not stated) -6.29%
COc1ccc(C(=O)Nc2nc3nccc(-c4ccccc4)n3n2)cc1 -11.9%
O=C(Oc1cccnc1)c1ccc([N+](=O)[O-])cc1 -6%
Cc1ccc(C(=O)C(C)Oc2cccc(NC(=O)c3ccco3)c2)cc1 (configuration not stated) -14.7%
CCCCC(=O)Nc1cc([N+](=O)[O-])ccc1Cl -3.41%
O=C(N/N=C/c1coc2ccccc2c1=O)c1ccccc1Br -29.1%
CCCOc1ccc(N2C(=O)CC(N3CCCC(C(=O)N4CCCC4)C3)C2=O)cc1 (configuration not stated) -12.2%
